# In the supplement of paper PMC8728848:
# The list shows a part of the results.
# Key:
# Experiment in all cases: glycan array binding signal (z-score within array); higher = stronger binding
# Settings in all cases: glycan notation: IUPAC condensed, linker removed
# Fuc(a1-3)GlcNAc = molecular target: Fuc(a1-3)GlcNAc
# Procedure, shortened: (§1)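 The binding signal is a Z-score computed within each array and averaged over linkers. Arrays of the same protein sequence at different concentrations or buffers were also averaged together. Data originate from 3228 arrays in the Consortium for Functional Glycomics database, kept only where the protein sequence was available.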
# [1] = molecular target: Fuc(a1-3)[Gal(b1-4)]Glc6S
# Procedure, shortened: as §1
# [2] = molecular target: Fuc(a1-3)[Gal(b1-4)]GlcNAc
# Procedure, shortened: as §1
# [3] = molecular target: Fuc(a1-3)[Gal(b1-4)]GlcNAc(b1-2)Man
# Procedure, shortened: as §1
# [4] = molecular target: Fuc(a1-3)[Gal(b1-4)]GlcNAc(b1-2)Man(a1-3)[Fuc(a1-3)[Gal(b1-4)]GlcNAc(b1-2)Man(a1-6)]Man(b1-4)GlcNAc(b1-4)GlcNAc
# Procedure, shortened: as §1
# [5] = molecular target: Fuc(a1-3)[Gal(b1-4)]GlcNAc(b1-2)Man(a1-3)[Fuc(a1-3)[Gal(b1-4)]GlcNAc(b1-2)Man(a1-6)]Man(b1-4)GlcNAc(b1-4)[Fuc(a1-6)]GlcNAc
# Procedure, shortened: as §1
# [6] = molecular target: Fuc(a1-3)[Gal(b1-4)]GlcNAc(b1-3)Gal(b1-3)[Fuc(a1-4)]GlcNAc
# Procedure, shortened: as §1
# [7] = molecular target: Fuc(a1-3)[Gal(b1-4)]GlcNAc(b1-3)Gal(b1-4)[Fuc(a1-3)]GlcNAc
# Procedure, shortened: as §1
# [8] = molecular target: Fuc(a1-3)[Gal(b1-4)]GlcNAc(b1-3)Gal(b1-4)[Fuc(a1-3)]GlcNAc(b1-3)Gal(b1-4)[Fuc(a1-3)]GlcNAc
# Procedure, shortened: as §1
# [9] = molecular target: Fuc(a1-3)[Gal(b1-4)]GlcNAc(b1-3)GalNAc
# Procedure, shortened: as §1
# [10] = molecular target: Fuc(a1-3)[Gal(b1-4)]GlcNAc(b1-6)GalNAc
# Procedure, shortened: as §1
# [11] = molecular target: Fuc(a1-3)[Gal(b1-4)]GlcNAc(b1-6)[Gal(b1-3)GlcNAc(b1-3)]Gal(b1-4)Glc
# Procedure, shortened: as §1
# [12] = molecular target: Fuc(a1-3)[Gal(b1-4)]GlcNAc6S
# Procedure, shortened: as §1
# [13] = molecular target: Fuc(a1-3)[Gal3S(b1-4)]Glc
# Procedure, shortened: as §1
# [14] = molecular target: Fuc(a1-3)[Gal3S(b1-4)]GlcNAc
# Procedure, shortened: as §1
# [15] = molecular target: Fuc(a1-3)[Gal3S(b1-4)]GlcNAc6S
# Procedure, shortened: as §1
# [16] = molecular target: Fuc(a1-3)[GalNAc(b1-4)]GlcNAc
# Procedure, shortened: as §1
# [17] = molecular target: Fuc(a1-3)[GalNAc(b1-4)]GlcNAc6S
# Procedure, shortened: as §1
# Fuc(a1-4)GlcNAc = molecular target: Fuc(a1-4)GlcNAc
# Procedure, shortened: as §1
# Fuc(b1-3)GlcNAc = molecular target: Fuc(b1-3)GlcNAc
# Procedure, shortened: as §1
# Gal(a1-2)Gal = molecular target: Gal(a1-2)Gal
# Procedure, shortened: as §1
# Gal(a1-3)Gal = molecular target: Gal(a1-3)Gal
# Procedure, shortened: as §1
# Gal(a1-3)Gal(b1-3)GlcNAc = molecular target: Gal(a1-3)Gal(b1-3)GlcNAc
# Procedure, shortened: as §1
# [18] = molecular target: Gal(a1-3)Gal(b1-3)GlcNAc(b1-2)Man
# Procedure, shortened: as §1
# [19] = molecular target: Gal(a1-3)Gal(b1-3)GlcNAc(b1-2)Man(a1-3)[Gal(a1-3)Gal(b1-3)GlcNAc(b1-2)Man(a1-6)]Man(b1-4)GlcNAc(b1-4)GlcNAc
# Procedure, shortened: as §1
# [20] = molecular target: Gal(a1-3)Gal(b1-3)GlcNAc(b1-3)GalNAc
# Procedure, shortened: as §1
# [21] = molecular target: Gal(a1-3)Gal(b1-3)GlcNAc(b1-6)GalNAc
# Procedure, shortened: as §1
# [22] = molecular target: Gal(a1-3)Gal(b1-3)[Fuc(a1-4)]GlcNAc(b1-2)Man(a1-3)[Gal(a1-3)Gal(b1-3)[Fuc(a1-4)]GlcNAc(b1-2)Man(a1-6)]Man(b1-4)GlcNAc(b1-4)GlcNAc
# Procedure, shortened: as §1
# Gal(a1-3)Gal(b1-4)Glc = molecular target: Gal(a1-3)Gal(b1-4)Glc
# Procedure, shortened: as §1
# Gal(a1-3)Gal(b1-4)GlcNAc = molecular target: Gal(a1-3)Gal(b1-4)GlcNAc
# Procedure, shortened: as §1
# [23] = molecular target: Gal(a1-3)Gal(b1-4)GlcNAc(b1-2)Man
# Procedure, shortened: as §1
# [24] = molecular target: Gal(a1-3)Gal(b1-4)GlcNAc(b1-2)Man(a1-3)[Gal(a1-3)Gal(b1-4)GlcNAc(b1-2)Man(a1-6)]Man(b1-4)GlcNAc(b1-4)GlcNAc
# Procedure, shortened: as §1
# [25] = molecular target: Gal(a1-3)Gal(b1-4)GlcNAc(b1-3)GalNAc
# Procedure, shortened: as §1
# [26] = molecular target: Gal(a1-3)Gal(b1-4)GlcNAc(b1-6)GalNAc
# Procedure, shortened: as §1
# [27] = molecular target: Gal(a1-3)Gal(b1-4)[Fuc(a1-3)]GlcNAc
# Procedure, shortened: as §1
# [28] = molecular target: Gal(a1-3)Gal(b1-4)[Fuc(a1-3)]GlcNAc(b1-2)Man(a1-3)[Gal(a1-3)Gal(b1-4)[Fuc(a1-3)]GlcNAc(b1-2)Man(a1-6)]Man(b1-4)GlcNAc(b1-4)GlcNAc
# Procedure, shortened: as §1
# Gal(a1-3)GalNAc = molecular target: Gal(a1-3)GalNAc
# Procedure, shortened: as §1
binder,measurement,setting,value
GS7807P-bth-537-23-537 (Bacteroides thetaiotaomicron) (protein) NYENINSNPYEAPDLSADGYALGSAMNNLAGCVVSPDVNTAQFTDCLLGGPLGGYFADSNAGFTETISNFNPKDDWSRVFLKSDKIIPTLYSNLTQVKLVSQNTNDPVPYAIAQVIKVAAMHRVTDAFGPIPYSQIGANGEIATPYDSQEVTYNTFFDELNAAIATLNENSNEQLVPTADYIYKGDVKKWIRFANSLKLRLAIRIAYANPVKAQQMAEEAVNPANGGVIESNADNATWNYFETSQNPIYVATRYNQVQTSDHGGVPCLTGGDTHAAADIICYMNGYKDNRREKFFTKSEWAGQDYVGMRRGIVIPELKTTGHKYSGVNIAPTSPLYWMNAAEVAFLRAEGQAVFNFSMGGTAESFYNQGIRLSFEQWGADGVEDYLKDDVNKPTAYTDPAGTNTYQNALSNITIKWNDSADKEEKQERIIVQKWIANWQLGNEAWADFRRTGYPKLIPVKENKSGGVVDSEKGARRMPYPLDEFVSNKANVEYAIANYLHGADNMATDVWWASKK,glycan array binding signal (z-score),Fuc(a1-3)GlcNAc,-0.318
same,glycan array binding signal (z-score),[1],-0.054
same,glycan array binding signal (z-score),[2],-0.344
same,glycan array binding signal (z-score),[3],-0.365
same,glycan array binding signal (z-score),[4],-0.004
same,glycan array binding signal (z-score),[5],1.93
same,glycan array binding signal (z-score),[6],-0.173
same,glycan array binding signal (z-score),[7],-0.039
same,glycan array binding signal (z-score),[8],-0.353
same,glycan array binding signal (z-score),[9],-0.078
same,glycan array binding signal (z-score),[10],-0.197
same,glycan array binding signal (z-score),[11],0.217
same,glycan array binding signal (z-score),[12],-0.365
same,glycan array binding signal (z-score),[13],-0.325
same,glycan array binding signal (z-score),[14],-0.061
same,glycan array binding signal (z-score),[15],-0.388
same,glycan array binding signal (z-score),[16],0.192
same,glycan array binding signal (z-score),[17],-0.273
same,glycan array binding signal (z-score),Fuc(a1-4)GlcNAc,-0.324
same,glycan array binding signal (z-score),Fuc(b1-3)GlcNAc,-0.323
same,glycan array binding signal (z-score),Gal(a1-2)Gal,-0.396
same,glycan array binding signal (z-score),Gal(a1-3)Gal,0.004
same,glycan array binding signal (z-score),Gal(a1-3)Gal(b1-3)GlcNAc,0.94
same,glycan array binding signal (z-score),[18],1.1
same,glycan array binding signal (z-score),[19],0.266
same,glycan array binding signal (z-score),[20],0.726
same,glycan array binding signal (z-score),[21],0.143
same,glycan array binding signal (z-score),[22],1.45
same,glycan array binding signal (z-score),Gal(a1-3)Gal(b1-4)Glc,-0.101
same,glycan array binding signal (z-score),Gal(a1-3)Gal(b1-4)GlcNAc,0.266
same,glycan array binding signal (z-score),[23],-0.141
same,glycan array binding signal (z-score),[24],0.323
same,glycan array binding signal (z-score),[25],-0.162
same,glycan array binding signal (z-score),[26],-0.157
same,glycan array binding signal (z-score),[27],0.577
same,glycan array binding signal (z-score),[28],-0.312
same,glycan array binding signal (z-score),Gal(a1-3)GalNAc,0.008
